# Experimental data reported in the supplement of paper PMC8728848.
# Some of the results follow.
# What was measured:
# Assay in all cases: glycan array binding signal (z-score within array); higher = stronger binding
# Conditions in all cases: glycan notation: IUPAC condensed, linker removed
# [1] = target: Gal(a1-3)Gal(b1-4)GlcNAc(b1-2)Man
# Summary of the method: (§1)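 From the Consortium for Functional Glycomics database, 3228 arrays were curated, keeping only those whose protein sequence was available. Binding is given as a within-array Z-score averaged across arrays sharing a protein sequence and across linkers. Negative Z-scores can be read as non-binding.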
# [2] = target: Gal(a1-3)Gal(b1-4)GlcNAc(b1-2)Man(a1-3)[Gal(a1-3)Gal(b1-4)GlcNAc(b1-2)Man(a1-6)]Man(b1-4)GlcNAc(b1-4)GlcNAc
# Summary of the method: as §1
# [3] = target: Gal(a1-3)Gal(b1-4)GlcNAc(b1-3)GalNAc
# Summary of the method: as §1
# [4] = target: Gal(a1-3)Gal(b1-4)GlcNAc(b1-6)GalNAc
# Summary of the method: as §1
# [5] = target: Gal(a1-3)Gal(b1-4)[Fuc(a1-3)]GlcNAc
# Summary of the method: as §1
# [6] = target: Gal(a1-3)Gal(b1-4)[Fuc(a1-3)]GlcNAc(b1-2)Man(a1-3)[Gal(a1-3)Gal(b1-4)[Fuc(a1-3)]GlcNAc(b1-2)Man(a1-6)]Man(b1-4)GlcNAc(b1-4)GlcNAc
# Summary of the method: as §1
# [7] = target: Gal(a1-3)GalNAc
# Summary of the method: as §1
# [8] = target: Gal(a1-3)[Gal(a1-4)]Gal(b1-4)GlcNAc
# Summary of the method: as §1
# [9] = target: Gal(a1-4)Gal(b1-3)GlcNAc(b1-2)Man(a1-3)[Gal(a1-4)Gal(b1-3)GlcNAc(b1-2)Man(a1-6)]Man(b1-4)GlcNAc(b1-4)GlcNAc
# Summary of the method: as §1
# [10] = target: Gal(a1-4)Gal(b1-4)Glc
# Summary of the method: as §1
# [11] = target: Gal(a1-4)Gal(b1-4)GlcNAc
# Summary of the method: as §1
# [12] = target: Gal(a1-4)Gal(b1-4)GlcNAc(b1-2)Man(a1-3)[Gal(a1-4)Gal(b1-4)GlcNAc(b1-2)Man(a1-6)]Man(b1-4)GlcNAc(b1-4)GlcNAc
# Summary of the method: as §1
# [13] = target: Gal(a1-4)Gal(b1-4)GlcNAc(b1-3)Gal(b1-4)Glc
# Summary of the method: as §1
# [14] = target: Gal(a1-4)GlcNAc
# Summary of the method: as §1
# [15] = target: Gal(a1-6)Glc
# Summary of the method: as §1
# [16] = target: Gal(b1-2)Gal
# Summary of the method: as §1
# [17] = target: Gal(b1-3)Gal
# Summary of the method: as §1
# [18] = target: Gal(b1-3)Gal(b1-4)GlcNAc
# Summary of the method: as §1
# [19] = target: Gal(b1-3)GalNAc
# Summary of the method: as §1
# [20] = target: Gal(b1-3)GalNAc(a1-3)[Fuc(a1-2)]Gal(b1-4)Glc
# Summary of the method: as §1
# [21] = target: Gal(b1-3)GalNAc(a1-3)[Fuc(a1-2)]Gal(b1-4)GlcNAc
# Summary of the method: as §1
# [22] = target: Gal(b1-3)GalNAc(b1-3)Gal
# Summary of the method: as §1
# [23] = target: Gal(b1-3)GalNAc(b1-3)Gal(a1-4)Gal(b1-4)Glc
# Summary of the method: as §1
# [24] = target: Gal(b1-3)GalNAc(b1-4)Gal(b1-4)Glc
# Summary of the method: as §1
# [25] = target: Gal(b1-3)GalNAc(b1-4)[Neu5Ac(a2-3)]Gal(b1-4)Glc
# Summary of the method: as §1
# [26] = target: Gal(b1-3)GlcNAc
# Summary of the method: as §1
# [27] = target: Gal(b1-3)GlcNAc(a1-3)Gal(b1-4)GlcNAc
# Summary of the method: as §1
# [28] = target: Gal(b1-3)GlcNAc(a1-6)Gal(b1-4)GlcNAc
# Summary of the method: as §1
# [29] = target: Gal(b1-3)GlcNAc(b1-2)Man
# Summary of the method: as §1
# [30] = target: Gal(b1-3)GlcNAc(b1-2)Man(a1-3)[Gal(b1-3)GlcNAc(b1-2)Man(a1-6)]Man(b1-4)GlcNAc(b1-4)GlcNAc
# Summary of the method: as §1
# [31] = target: Gal(b1-3)GlcNAc(b1-2)Man(a1-3)[Gal(b1-3)GlcNAc(b1-2)Man(a1-6)]Man(b1-4)GlcNAc(b1-4)[Fuc(a1-6)]GlcNAc
# Summary of the method: as §1
# [32] = target: Gal(b1-3)GlcNAc(b1-2)Man(a1-3)[GlcNAc(b1-4)][Gal(b1-3)GlcNAc(b1-2)Man(a1-6)]Man(b1-4)GlcNAc(b1-4)GlcNAc
# Summary of the method: as §1
# [33] = target: Gal(b1-3)GlcNAc(b1-2)[Gal(b1-3)GlcNAc(b1-6)]Man(a1-6)[Gal(b1-3)GlcNAc(b1-2)Man(a1-3)]Man(b1-4)GlcNAc(b1-4)GlcNAc
# Summary of the method: as §1
# [34] = target: Gal(b1-3)GlcNAc(b1-3)Gal(b1-3)GlcNAc
# Summary of the method: as §1
# [35] = target: Gal(b1-3)GlcNAc(b1-3)Gal(b1-4)Glc
# Summary of the method: as §1
# [36] = target: Gal(b1-3)GlcNAc(b1-3)Gal(b1-4)GlcNAc
# Summary of the method: as §1
# [37] = target: Gal(b1-3)GlcNAc(b1-3)Gal(b1-4)GlcNAc(b1-2)Man(a1-3)[Gal(b1-3)GlcNAc(b1-3)Gal(b1-4)GlcNAc(b1-2)Man(a1-6)]Man(b1-4)GlcNAc(b1-4)GlcNAc
# Summary of the method: as §1
# [38] = target: Gal(b1-3)GlcNAc(b1-3)Gal(b1-4)GlcNAc(b1-2)[Gal(b1-3)GlcNAc(b1-3)Gal(b1-4)GlcNAc(b1-6)]Man(a1-6)[Gal(b1-3)GlcNAc(b1-3)Gal(b1-4)GlcNAc(b1-2)Man(a1-3)]Man(b1-4)GlcNAc(b1-4)[Fuc(a1-6)]GlcNAc
# Summary of the method: as §1
# [39] = target: Gal(b1-3)GlcNAc(b1-3)Gal(b1-4)GlcNAc(b1-3)Gal(b1-4)GlcNAc(b1-2)[Gal(b1-3)GlcNAc(b1-3)Gal(b1-4)GlcNAc(b1-3)Gal(b1-4)GlcNAc(b1-6)]Man(a1-6)[Gal(b1-3)GlcNAc(b1-3)Gal(b1-4)GlcNAc(b1-3)Gal(b1-4)GlcNAc(b1-2)Man(a1-3)]Man(b1-4)GlcNAc(b1-4)[Fuc(a1-6)]GlcNAc
# Summary of the method: as §1
# [40] = target: Gal(b1-3)GlcNAc(b1-3)Gal(b1-4)GlcNAc(b1-6)[Gal(b1-3)GlcNAc(b1-3)]Gal(b1-4)Glc
# Summary of the method: as §1
# [41] = target: Gal(b1-3)GlcNAc(b1-3)Gal(b1-4)[Fuc(a1-3)]GlcNAc
# Summary of the method: as §1
# [42] = target: Gal(b1-3)GlcNAc(b1-3)Gal(b1-4)[Fuc(a1-3)]GlcNAc(b1-6)[Gal(b1-3)GlcNAc(b1-3)]Gal(b1-4)Glc
# Summary of the method: as §1
# [43] = target: Gal(b1-3)GlcNAc(b1-3)GalNAc
# Summary of the method: as §1
# [44] = target: Gal(b1-3)GlcNAc(b1-6)Gal(b1-4)GlcNAc
# Summary of the method: as §1
# [45] = target: Gal(b1-3)GlcNAc(b1-6)GalNAc
# Summary of the method: as §1
binder,measurement,setting,value
GS14009A-pdi-495-27-495 (Parabacteroides distasonis) (protein) FEEVNTDPDSPTDVPTTNLLAYSLYYTSYRLYDRWFAMDEPMTFCGYASKMTYIDESRYNFRTGVQDTNWEYLYRILNNLKDIEKRATFNETPNMLNVSKVMQVHLMQVATDRWRDVPYTDAAKMTDGILQPKYDKQEDIYPGLLATLKEAADGFADGGSDDLGEGDLLFGGDIEKWQRYCNSMRLRLAMRISEVSPALAKETVEEVMGNPTKYPIMESNDDNAFFWWIGTDPNYYEPMADGYRTRKTEYCAADVIVDHMNTREDPRRSSYFQPTKESVEAGEPKYVGYTIGAKANAVASKYSIWGARFFTDLAGFSPYMRVAEPWFCVAEASMLGWNTGISAEDAYNKAVTYSMEENSVSAEDIADYLANAGKFTNDKKQIYYEEWVAMFKQGMEGWSLYRRTGVPDNLYPAPGRPANYSNHNVPPFRSPYPDKERNLNNANCAPFDAEVVDNLWGKQMWWDTRTGVH,glycan array binding signal (z-score),[1],-0.545
same,glycan array binding signal (z-score),[2],0.96
same,glycan array binding signal (z-score),[3],-0.015
same,glycan array binding signal (z-score),[4],-0.267
same,glycan array binding signal (z-score),[5],0.306
same,glycan array binding signal (z-score),[6],0.074
same,glycan array binding signal (z-score),[7],-0.234
same,glycan array binding signal (z-score),[8],-0.106
same,glycan array binding signal (z-score),[9],2.33
same,glycan array binding signal (z-score),[10],-0.144
same,glycan array binding signal (z-score),[11],-0.256
same,glycan array binding signal (z-score),[12],2.23
same,glycan array binding signal (z-score),[13],-0.352
same,glycan array binding signal (z-score),[14],-0.025
same,glycan array binding signal (z-score),[15],-0.685
same,glycan array binding signal (z-score),[16],-0.447
same,glycan array binding signal (z-score),[17],0.219
same,glycan array binding signal (z-score),[18],0.229
same,glycan array binding signal (z-score),[19],-0.394
same,glycan array binding signal (z-score),[20],0.514
same,glycan array binding signal (z-score),[21],-0.831
same,glycan array binding signal (z-score),[22],-0.25
same,glycan array binding signal (z-score),[23],-0.55
same,glycan array binding signal (z-score),[24],0.001
same,glycan array binding signal (z-score),[25],-0.004
same,glycan array binding signal (z-score),[26],-0.321
same,glycan array binding signal (z-score),[27],-0.776
same,glycan array binding signal (z-score),[28],-0.358
same,glycan array binding signal (z-score),[29],-0.202
same,glycan array binding signal (z-score),[30],0.798
same,glycan array binding signal (z-score),[31],0.702
same,glycan array binding signal (z-score),[32],0.341
same,glycan array binding signal (z-score),[33],-0.34
same,glycan array binding signal (z-score),[34],0.618
same,glycan array binding signal (z-score),[35],-1.07
same,glycan array binding signal (z-score),[36],-0.544
same,glycan array binding signal (z-score),[37],4.58
same,glycan array binding signal (z-score),[38],0.356
same,glycan array binding signal (z-score),[39],0.18
same,glycan array binding signal (z-score),[40],-0.161
same,glycan array binding signal (z-score),[41],-0.557
same,glycan array binding signal (z-score),[42],-0.233
same,glycan array binding signal (z-score),[43],0.476
same,glycan array binding signal (z-score),[44],-0.333
same,glycan array binding signal (z-score),[45],-0.364
